# Laboratory results published in the supplement of paper PMC11417369.
# Some of the results follow.
# Test system: PfAP2-HC AP2 domain (GST-tagged)
# Assay: gcPBM binding intensity (ln(normalized median fluorescence intensity)); higher = stronger DNA binding
# How it was run: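 Binding of GST-tagged P. falciparum DNA-binding domains, expressed in E. coli and used at about 25 μg on average, was carried out for 1 h in 1× PBS containing 1% milk, 0.2 mg/ml BSA, 0.5% salmon testes DNA and 0.03% Triton X-100. The target was an Agilent 4 × 180k array of primer-extended double-stranded 36-bp intergenic genomic probes plus negative controls, read with Alexa488 anti-GST antibody at 488 nm. Binding intensity is the highest Masliner-normalised natural-log median intensity across replicate spots of either probe orientation.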
row,Sequence,gcPBM binding intensity (ln)
1,TATATATATATATATACACACATATATACCTATATA [CACACA_site6085],9.68
2,CATGTTCATCAGAACGCACACATAATGGTTTACTTA [CACACA_site898],9.82
3,AAGAAAAAAAAAATTACACACTGCGCACATACACAA [CACACA_site6721],10.6
4,GTGTATATGTATATATGTACATAAATTTTTTTTTTT [XGTACX_site7083],9.59
5,AGTAACTAATTAAATGCATGTCGATATATATTATAT [TGCATGCA_site1038],9.73
6,GATACACCAAATAACTGTACGCACGTGTAATATTAA [XGTACX_site3441],9.99
7,ACTTATATAAAACATTAACACACAAAGAAAAAAAAT [CACACA_site8529],9.94
8,TTAACCGGTTTATGGGTGCACATTCTTCTTAAATAA [GTGCAC_site9928],9.51
9,CCTAGAAAAGTATATACACACGCGCAAAATAAAATT [CACACA_site1413],9.83
10,AAAAAAAAGTTAAGCACACACATGAATAAATAATAC [CACACA_site840],10.2
11,TGTATAAAAGTTTATACACACATTTGATATATTTCA [CACACA_site6606],9.66
12,TTTTTTTGTTGTTGTTGTACGATATTTTCCTTATCA [XGTACX_site2375],10
13,TATAAAAAAAACAAAAAAAAAAAAAAACAAAAAAAA [TGCATGCA_negctrl_site514],9.5
14,GGGAATATAAGTACACGATAATATGTGATAAGGTCT [CACACA_negctrl_site1502],9.86
15,TTTTATTTTTATTATACACACGCTTAATAAATGCAT [CACACA_site1751],9.78
16,GGGGGGATGAGATATTGTACTTTTTAGGAAAGTGTA [XGTACX_site2835],9.67
17,CATTTAACATAAATTAAACACACAATATAATACATT [CACACA_site8333],9.73
18,AAAGATAAAATATTATGTACATATATATATATATAT [XGTACX_site5079],9.65
19,AATAATAATACTAATCGTACGCATATTTTTCAAACC [XGTACX_site8055],9.7
20,ATTAAATACATTAACACACACACAAATATATACATA [CACACA_site2881],10.7
21,AATAATATATTTAGGGGTACATAATAATATATTTTA [XGTACX_site8366],9.59
22,AAAAATAGAATAAATACACACCCGTGTAACGGATTT [CACACA_site3372],9.81

row,Sequence,gcPBM binding intensity (ln)
1,TTTATAAAAATGAACACACACATATAAATATAAATA [CACACA_site7607],10.3
2,TTTTAAATATGAACATGTACATGTAAATTTACATGT [XGTACX_site4573],9.51
3,TATTTTTATAAGTAAAAGGAGCACAGTTAAAGGATC [XGTACX_negctrl_site362],9.7
4,TTTTAATTTATTAATTGTACATGTATTTTAAGATTA [XGTACX_site8417],9.52
5,TTATTATTAAAAAAAAGTACAGAATTGAATAATACA [XGTACX_site651],9.61
6,TAAACATTTGGCTGATGTACTTGCTACCTTAAATCA [XGTACX_site5514],9.45
7,ATTTTTGTGTATTAATGTACTTTATGCATATTTGAC [XGTACX_site3353],9.9
8,TTGGTCTTTTAAAAAAGTACAAAAAAAAAAAAAAAA [XGTACX_site1665],9
9,TATAAATAAAGATATACACACATATAAATATTTTTC [CACACA_site7798],9.94
10,ATTTTTTTTTTTATAGTGGATCCACATTTGCCATTT [CACACA_negctrl_site1106],9.68
11,TTACGATCATCAATATGTACATATATATATATATAT [XGTACX_site4301],9.75
12,TATAAAAAAATATTATAATATATATATATATATATA [XGTACX_negctrl_site41],9.45
13,AATATTTATATTTACACACACATAATACATCTATGT [CACACA_site4187],10.4
14,GATAAATTAAGACACACACACATATATTTATTTATA [CACACA_site7789],11.2
15,AAAAAAGAACGCATAGTGCATATCTAAAAGATTTTT,9.64
16,TAGTATTAGATATATACACACATATATACCTATAGA [CACACA_site7083],9.86
17,AAATAAAGGAAATAAAAAGAAACCAATTTCGAATAT [CACACA_negctrl_site953],9.63
18,GATATAATTATGTGTACACAATTTTTTTTTTTTTTT [CACACA_site4501],9.68
19,ATATGTATGTATAATCGTACAAAATTTGGCGATCTT [XGTACX_site8698],9.68
20,TTTTTTTTAAAACTATGTACGTAAAAATTGTAGTTT [XGTACX_site2302],9.51
21,TTTATATGTATTAATTGTACACATATAATGTGTTTT [XGTACX_site3064],9.83
22,ATATAGTAAATTGGTAGTACATAAAATGATTTTATG [XGTACX_site4143],9.65

row,Sequence,gcPBM binding intensity (ln)
1,AGAACTTTTAATGGATGTACAGTTATTTTATTATTT [XGTACX_site6226],9.86
2,AACAGATAAAAGGGTACACACATATATACAAGTACA [CACACA_site7959],10.2
3,TTATGTAGCTAGCTATAAACTTTTTTTTATTTAAAA [CACACA_negctrl_site1297],9.35
4,TATATAGATATGATAGTGCATTTTTAGAAAACATAA [GTGCAC_site9962],9.59
5,ATATATATATATATATGTACATACTATACAATAATT [XGTACX_site3546],9.97
6,ATTATTATTAAATACACACACATACCTCCATGTTAG [CACACA_site3430],10.1
7,TTGTTATTATATTACGCATGCATCATTTATTTGCAC [TGCATGCA_site525],9.74
8,AAAGGGAATTATGGCTGTACGCATTTTATAAATAGC [XGTACX_site5878],9.68
9,TGCTGTATATTTTTCTGTACACATTTATATATTCCA [XGTACX_site6244],9.99
10,AAGAATAAGAAGAAGGATCCCCTTCAAAAAAAAAAA [TGCATGCA_negctrl_site525],9.37
11,AAAAAAAAAACATACACACATACATACATATATATT [CACACA_site949],10.2
12,ATGAAGAATTTATATTGTACCCATTTTTATGTAAAT [XGTACX_site2528],9.61
13,CGAAAAAGTGATATAGTGCAAAATTTTCATTTCTCT,9.71
14,AATATTTTTGTCGTTAGTACATAAAAAATAATAATA [XGTACX_site3074],9.56
15,ATAATTTTATCATATATATATATATATAAATACTTA [CACACA_negctrl_site743],9.56
16,ATGCTTTTATGCACACGTACAAAAATATTATATAAT [XGTACX_site5589],9.68
17,AATAATAAAGTGAACACACACATATAATATATATAT [CACACA_site4143],10.2
18,ATAATTAAAATGCTCACACACATAAAAAAAAATTAA [CACACA_site2149],9.94
19,ATCCCCATAAAAAATACACACAAATATTTATACATA [CACACA_site1001],10
20,ATAGAATCTGGTAGCTGTACGAGTCGTAGAGTGTAG [XGTACX_site2016],9.74
21,ATATATTAAAAGGATTAGGAAAAAATATGATTTATC [TGCATGCA_negctrl_site405],9.52
22,AAGTAAAAAAAAAAAAGTACATGTTTATATAAATAT [XGTACX_site4741],9.63

row,Sequence,gcPBM binding intensity (ln)
1,ATACATATATATAATACACACATAAATGTAACATTT [CACACA_site3518],9.96
2,ATAAATTAACATTAAAGTACATTTTAATAAATATTA [XGTACX_site3647],9.35
3,GATCAAAATTATAGAAGTACTTTATATAAATAAAAT [XGTACX_site8161],9.6
4,TATATATATAAGATTGTGCACATTAAAATGATAGAA [GTGCAC_site9621],10.1
5,TCATAAATACATTTTGCATGTAAAATATAGAATACA [TGCATGCA_site755],9.65
6,TCTATAAAATATAAAAGTACGTATCAATAATTAAAA [XGTACX_site8469],9.65
7,ATTACGATAGAGAAATGTACATATATATATGTAAGT [XGTACX_site1200],9.84
8,TATTTTATAAATTAATGTACATAAATTATATCTACT [XGTACX_site3625],9.54
9,TGATAAGAAAAAGACTTTTCCTTCTTACTTTCTATG [CACACA_negctrl_site782],9.48
10,AATAATGTTTTTATATCACACACAAATATTAAATGA [CACACA_site8074],9.93
11,CAAAATAAATAATTTGGTACACATAAAAAAAAAAAA [XGTACX_site8380],9.77
12,CCATAAAACTATAATACACACATATAGATTAACATA [CACACA_site7849],10.1
13,AAAATTGGTGAAAATGAAAATATGATTATATGTATA [XGTACX_negctrl_site505],9.67
14,GTATATAGTATGTAGAGTACTAATTTCCATATGTTC [XGTACX_site7816],9.68
15,ATTTATATATAGGTGTGTCCACAAATAGTATGTAAA [XGTACX_site2916],9.88
16,AATTAATATATAAATAATAAAAAAAAATATATAAAC [XGTACX_negctrl_site280],9.62
17,GAACGAAATAAGTGTGTGCACATGTAACCACAAATC [GTGCAC_site9829],10.4
18,CAATATTTTCATAGATGTACTTTGGACTTATTATAT [XGTACX_site4849],9.6
19,TAAATAAAAGATACGAGTACGTATGATGTTAACCTC [XGTACX_site8840],9.99
20,CTTATTTAATGTATCACACACGAGAATAAAAAATAA [CACACA_site3020],9.79
21,TATAAGTTGATATATACACACATATATAAATATGTA [CACACA_site7526],9.77
22,TATTTATAAAAATATACACACATACAAATATGCATA [CACACA_site4555],9.82
